Measurements published in paper PMC8614738.
No constants are given. Whether binding was seen depends on the method and setting. Some binding calls cover weakened binding; strength is not graded here.

The chains behind the UniProt entries cited, without tags or fusion partners.
UniProt P0CE47: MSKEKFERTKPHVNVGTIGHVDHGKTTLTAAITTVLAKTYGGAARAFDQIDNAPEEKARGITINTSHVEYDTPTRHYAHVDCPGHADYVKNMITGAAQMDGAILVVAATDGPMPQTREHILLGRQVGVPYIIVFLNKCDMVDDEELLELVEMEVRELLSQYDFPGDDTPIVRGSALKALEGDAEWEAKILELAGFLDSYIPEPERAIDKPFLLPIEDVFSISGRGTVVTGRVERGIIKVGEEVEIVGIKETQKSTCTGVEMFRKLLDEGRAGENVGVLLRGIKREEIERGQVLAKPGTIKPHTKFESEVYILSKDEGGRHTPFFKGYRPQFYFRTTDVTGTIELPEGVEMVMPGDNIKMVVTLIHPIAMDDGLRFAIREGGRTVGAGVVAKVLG

Experiments:
[1] = target: elongation factor thermo-unstable (EF-Tu), native monomeric (UniProt P0CE47); test: SEC; analytical gel filtration of double mixtures, HiLoad 16/600 Superdex 200, 0.1 mM of each protein pre-incubated at 35 °C for 30 min; 50 mM Tris-HCl, 50 mM NaCl, 1 mM MgSO4, 2 mM DTT, pH 7.4, about 22 °C; fractions on SDS-PAGE; both purified
[2] = target: oligomeric EF-Tu (^OligoEF-Tu), unfolded (UniProt P0CE47); test: as above
[3] = target: elongation factor thermo-unstable (EF-Tu), native monomeric (UniProt P0CE47); test: ITC; single injection of 140 μL Hsp33 (165 μM) into 1.4 mL EF-Tu (16.5 μM) at 35 °C; 50 mM Tris-HCl pH 7.4, 50 mM NaCl, 1 mM MgSO4, 50 μM ZnSO4, 1 mM DTT; both purified
[4] = target: elongation factor thermo-unstable (EF-Tu), native monomeric (UniProt P0CE47); test: SEC; analytical gel filtration of the triple mixture EF-Tu:EF-Ts:Hsp33, 0.1 mM each, pre-incubated at 35 °C for 30 min; same column and buffer; fractions on SDS-PAGE; both purified

Measured: binding

B1: heat shock protein 33 (Hsp33), reduced zinc-bound (protein, UniProt P0A6Y5 1-292)
chain: MPQHDQLHRYLFENFAVRGELVTVSETLQQILENHDYPQPVKNVLAELLVATSLLTATLKFDGDITVQLQGDGPMNLAVINGNNNQQMRGVARVQGEIPENADLKTLVGNGYVVITITPSEGERYQGVVGLEGDTLAACLEDYFMRSEQLPTRLFIRTGDVDGKPAAGGMLLQVMPAQNAQQDDFDHLATLTETIKTEELLTLPANEVLWRLYHEEEVTVYDPQDVEFKCTCSRERCADALKTLPDEEVDSILAEDGEIDMHCDYCGNHYLFNAMDIAEIRNNASPADPQVH
binds: all assays above
